In PubChem BioAssay AID1347434 (National Center for Advancing Translational Sciences (NCATS), 2020):
Among all 1,200 compounds or so, about 30 (2%) were called active. Another 23% or so got no clear call; they are omitted. Calls follow the shape of the dose curve; as a rule, active = well fitted inhibition curve with a large enough effect; inconclusive = small, poorly fitted or top-dose-only effect; inactive = flat fitted curve, though single readings scatter. This is one part of the list.

target: Single-stranded DNA cytosine deaminase (Homo sapiens) (UniProt Q9GZX7); assay: Confirmatory qHTS assay for inhibitors of Activation Induced Cytidine Deaminase (AID): AID signals; conditions: recombinant AID, FRET deamination/UDG coupled fluorescence, 4 h; series mostly up to 115 µM; activity, negative = inhibition: at the top concentration
UniProt Q9GZX7, sequence (Q9GZX7 whole entry, looked up): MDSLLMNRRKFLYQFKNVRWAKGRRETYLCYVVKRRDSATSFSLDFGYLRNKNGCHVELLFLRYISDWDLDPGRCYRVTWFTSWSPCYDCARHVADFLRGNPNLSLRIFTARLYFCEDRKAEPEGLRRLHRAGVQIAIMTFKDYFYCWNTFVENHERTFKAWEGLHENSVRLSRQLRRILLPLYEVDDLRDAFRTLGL
Method in brief: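 Read 1 (AID) was measured at 540 ex/590 em after a 30 min NaOH step. The reaction was AID (1 uM, 4/3x stock) with UDG, compound at final 7.32 nM - 114 uM for 10 min, then DJC20/DJC23 substrate for 4 hr at room temperature. A UDG read at 560/665 serves as counterscreen.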
% is scaled to controls: 0 for no effect and ±100 for the full control effect; potency is read from the fitted curve at half-maximal effect.

activity, negative = inhibition, inactive:
O=C(Cc1ccc(F)cc1)N1CCC(c2nc3c(nnn3Cc3ccc(F)cc3)c(=O)[nH]2)CC1 -14.4%
CCn1cc2nc(SCc3ccc(C)cc3)n(CCc3ccccc3)c(=O)c2n1 -8.74%
COc1cc2c(=O)c(S(=O)(=O)c3ccc(C)cc3)cn(Cc3cccc(C)c3)c2cc1OC -8.12%
COc1ccc(C(=O)/C=C/c2cn(CC(O)CN(CC(C)C)CC(C)C)c3ccccc23)cc1 (stereo not drawn) -10.7%
CC(NC(=O)c1nn(C)c2c1CSc1ccccc1-2)c1ccccc1 (stereo not drawn) -3.81%
O=C(c1cnc2cc(-c3ccccc3)nn2c1)c1cc([N+](=O)[O-])ccc1O -29.5%
COc1ccc(CCNC(=O)c2cc(Nc3cc(C)cc(C)c3)nc3ccccc23)cc1OC -13.5%
CCCCOc1ccc(C(=O)N2CCC(c3nc4ccccc4o3)CC2)cc1 -18.9%
CCOC(=O)C1=C(C)NC(=O)NC1c1cn(-c2ccccc2)nc1-c1ccc(OC(C)C)cc1 (stereo not drawn) -1.47%
O=C(CSc1nc(-c2cccs2)nc2cc(=O)[nH]n12)Nc1cccc(C(F)(F)F)c1 1.5%
CCCOc1ccc(-c2nn(-c3ccccc3)cc2C2NC(=O)NC(C)=C2C(=O)OC)cc1 (stereo not drawn) -9.67%
CCCCOc1ccc(C(=O)Nc2ccc(S(=O)(=O)Nc3nc(C)cc(C)n3)cc2)cc1 3.2%
CCCCOc1ccc(C(=O)N2CC(=O)Nc3ccc(Br)cc3C2c2ccc(F)cc2)cc1 (stereo not drawn) -9.47%
COc1ccc(-c2cn3cccnc3n2)cc1NC(=O)Nc1cc(C)ccc1C -13.7%
Cc1ccc(Cl)cc1N1CCN(C(=O)c2cc3ccc4cccnc4c3[nH]2)CC1 -16.7%
COc1ccccc1C(=O)NCCn1cc(SCC(=O)Nc2ccccc2F)c2ccccc21 4.48%
COc1ccc(C)cc1NC(=O)c1c(C)oc2ncn(CC(C)C)c(=O)c12 -3.76%
CCCn1cc(S(=O)(=O)c2ccccc2)c(=O)c2cc(F)c(N3CCCC(C)C3)cc21 (stereo not drawn) 5.07%
CCOc1ccc(/C=C/c2nc(C#N)c(NCc3ccccc3)o2)cc1 6.33%
COc1ccc(Nc2oc(-c3ccc(COc4ccccc4C)o3)nc2C#N)cc1 -0.14%
CC(C)(C)c1ccc(OCc2nc3ccccc3n2CCOc2ccccc2)cc1 -15.7%
COc1cccc(N2CCN(C(=O)c3cnn(-c4ccc(C)cc4C)c3C3CCN(C(=O)OC(C)(C)C)CC3)CC2)c1 -2.94%
COc1ccc(-c2noc(N3CCC(C(=O)N(C)c4cc(Cl)ccc4OC)CC3)n2)cc1 -4.38%
Cc1ccc(C)c(N2CCN(C(=O)c3cc(S(=O)(=O)N4CCC(C)CC4)cn3C)CC2)c1 -14.5%
CC1=C(C(=O)Nc2ccccc2)C(c2cc(Br)ccc2F)n2ncc(C(=O)Nc3ccccc3)c2N1 (stereo not drawn) 1.96%
O=C(O)c1ccc2c(c1)N(Cc1ccc(F)cc1Cl)C(=O)c1ccccc1S2 -9.29%
CCOCCCNC(=O)c1cn(CC)c2ccc(S(=O)(=O)N3CCc4ccccc4C3)cc2c1=O -4.56%
CCOC(=O)c1c(Oc2ccc(C(C)=O)cc2)nnc(-c2ccccc2)c1-c1ccccc1 2.35%
CCN(CC)CCCNC(=O)c1ccc2c(Cl)c3c(nc2c1)CCCC3 -3.87%
Cc1ccc(N2CCN(C(=O)NCc3noc4ccc(C)cc34)CC2)c(C)c1 -17.2%
O=C(CC1N=C2c3ccccc3N=C(SCc3cccc(Cl)c3)N2C1=O)NCCc1ccccc1 (stereo not drawn) -18.7%
CCOC(=O)N1CCc2c(sc(NCc3cccs3)c2C(=O)Nc2ccc(OC)cc2OC)C1 34.4%
COc1ccc(CC(=O)N(Cc2nc(-c3ccc(C)cc3)no2)C(C)C)cc1 -2.5%
CCOc1ccc(N(CC)C(=O)CCc2nc(-c3ccccc3F)no2)cc1 -12.6%
Cc1nc(-n2nc(C)c(CCC(C)C)c2C)sc1C(=O)Nc1cccc(Cl)c1 -12.4%
COc1ccccc1CC(=O)Nc1ccc2nc(Nc3cccc(C(F)(F)F)c3)cc(C)c2c1 -2.77%
Cc1ccc(Cl)cc1N1CCN(C(=O)c2cnn(C)c2C2CCN(C(=O)OC(C)(C)C)CC2)CC1 -27.2%
COc1ccc(C2CC(=O)N3CN(C4CCCCC4)CSC3=C2C#N)c(OC)c1 (stereo not drawn) -10.8%
Cc1c(C(=O)NCc2cccc(Cl)c2)sc2nc3n(c(=O)c12)CCCC3 -6.11%
CCn1c(C)c(C)c2cc(C(=O)N3CCN(c4ccccc4)CC3)ccc21 -1.49%
Cc1ccc(C)c(CN2C(=O)c3ccccc3S(=O)c3ccc(C(=O)N4CCC(C)CC4)cc32)c1 (stereo not drawn) -10.6%
COc1cc(NC(=O)CC(c2ccc(C)cc2)N2Cc3ccccc3C2=O)cc(OC)c1 (stereo not drawn) -5.69%
Cc1ccc(-c2nc3nc(C)cc(C)n3c2Nc2ccc3c(c2)OCCO3)cc1 -18.3%
Cc1cccc(CNC(=O)c2oc3c(c2C)-c2nn(Cc4cccc(Cl)c4)cc2CC3)c1 13.1%
CCOC(=O)N1CCc2c(sc(NCc3ccc(N(C)C)cc3)c2C(=O)Nc2ccc(OC)cc2)C1 13.4%
CCOC(=O)c1c(Nc2cc(C)cc(C)c2)nnc(-c2ccccc2)c1-c1ccccc1 6.32%
CCOc1ccccc1C(=O)N(Cc1cccs1)c1ccc(Cl)cc1 -17%
COc1ccc(C)cc1NC(=O)COCc1cc(-c2ccc(F)cc2)on1 -0.715%
CC(C)c1ccc(NC(=O)CSC2=Nc3ccccc3C3=NC(CCC(=O)NCc4ccco4)C(=O)N23)cc1 (stereo not drawn) 15.2%
Cc1ccc(C)c(Oc2nc3c(c(=O)n(C)c(=O)n3C)n2Cc2ccccc2)c1 -22.8%
COc1ccccc1C(=O)Oc1c(Sc2ccccc2)c(C)nn1-c1ccccc1 3.97%
CC(C)CCn1c(Oc2ccccc2F)nc2c1c(=O)n(C)c(=O)n2C -11.2%
Cc1ccc(Cl)cc1N1CCN(C(=O)c2ccc(CS(=O)c3ccccc3)o2)CC1 (stereo not drawn) -17.9%
CN(C(=O)c1oc(=O)c2ccccc2c1-c1ccccc1)c1cccc(Cl)c1 -18%
CCN1CCN(CCCNC(=O)c2ccc3c(c2)sc2nc(-c4ccc(C)cc4)cn23)CC1 -13.8%
Cc1cccc(-n2ncc(C(=O)NCc3ccco3)c2C2CCN(C(=O)OC(C)(C)C)CC2)c1 -2.91%
CCOc1ccc(NC(=O)Cn2c(=O)n(Cc3ccccc3)c(=O)c3c4c(sc32)CN(C(C)=O)CC4)cc1 -5.22%
Cc1cccc(OCC(=O)N(Cc2cccc(Cl)c2)Cc2ccco2)c1C -14.2%
Cc1ccc(C)c(N2CCN(C(=O)c3cc(S(=O)(=O)N4CCCCC4)cn3C)CC2)c1 -12%
CCCC(=O)Oc1c(Sc2ccc(Cl)cc2)c(C)nn1-c1ccccc1 -4.16%
COc1ccc(N2CCN(C(=O)c3nn(C)c4c3CSc3ccccc3-4)CC2)cc1 -29.2%
Cc1ccc(C)c(NC(=O)Cn2c(=O)n(Cc3ccco3)c(=O)c3ccc(C(=O)NC4CCCC4)cc32)c1 6.02%
COC(=O)c1c(NC(=O)CCCOc2ccccc2)sc2c1CCC(C)C2 (stereo not drawn) 11.1%
CCCCCCSc1nc(N)c2c3c(sc2n1)CCCC3C (stereo not drawn) -9.76%
CC(C)Oc1ccc(C(=O)NCCc2csc(-c3cccc(F)c3)n2)cc1 -17.9%
CCOc1ccc(Nc2c(S(=O)(=O)c3ccc(C)cc3)cnc3ccc(OC)cc23)cc1 -15.4%
O=c1cc2nc(-c3cccs3)nc(SCCOc3ccc(Cl)cc3)n2[nH]1 -10.7%
COc1cccc(C(=O)Nc2nc3nc(C)c(Cc4ccccc4)c(=O)n3[nH]2)c1 -1.41%
Cc1ccc2oc(C(=O)NCC(c3ccc(Cl)cc3)N3CCOCC3)c(C)c2c1 (stereo not drawn) -8.51%
COc1ccccc1CNC(=O)CSc1nc2nc(C)c(Cc3ccccc3C)c(C)n2n1 0.0876%
COc1ccc(CCNC(=O)c2c[nH]n3c(=O)c(Cc4ccccc4Cl)c(C)nc23)cc1OC -6.89%
O=C(NCC1CCN(Cc2ccccc2Cl)CC1)c1cc2ccc3cccnc3c2[nH]1 -9.34%
CCc1ccc(NC(=O)c2ccc3c(O)c(S(=O)(=O)c4ccccc4)c(=O)[nH]c3c2)cc1 -17.9%
N=c1n(CCN2CCCCC2)c2ccccc2n1CC(O)COc1ccccc1 (stereo not drawn) -0.329%
Cc1ccccc1Nc1c(-c2ccc(N3CCOCC3)cc2)nc2cccc(C)n12 -6.47%
COc1ccc(OC)c(-c2noc(N3CCN(c4cccc(C(F)(F)F)c4)CC3)n2)c1 -14.8%
CCC(=O)Oc1c(Sc2ccc(C)cc2)c(C)nn1-c1ccccc1 4.43%
CCOc1ccccc1C(=O)N1CCc2cc(OC)c(OC)cc2C1COc1ccc(OC)cc1 (stereo not drawn) -20.7%
COc1ccc(CN(Cc2ccco2)C(=O)COc2ccccc2Cl)cc1 -14.1%
CC1Cc2ccccc2N1S(=O)(=O)c1nnc(NC(=O)c2cccc(F)c2)s1 (stereo not drawn) -1.86%
Cn1nc(C(=O)NCc2ccccc2Cl)c2c1-c1ccccc1S(=O)(=O)C2 -14.1%
COc1ccc(C(C)=O)cc1CSc1nc(NCCc2ccccc2)c2ccccc2n1 -11%
COc1ccc(-c2nn(-c3ccccc3)cc2C2NC(=O)NC(C)=C2C(=O)OC(C)C)cc1Cl (stereo not drawn) -0.932%
Cc1ccc(Cl)cc1N1CCN(CCCNC(=O)c2ccc3nc(N4CCCCC4)sc3c2)CC1 -4.77%
CCn1cc2nc(SCC(=O)Nc3ccccc3C(F)(F)F)n(Cc3ccc(C)cc3)c(=O)c2n1 -22.9%
Cc1ccc(C(=O)c2cn(Cc3ccccc3)c3ccccc3c2=O)cc1 -15.5%
CCc1cccc(C)c1Nc1c(-c2ccc(N(C)C)cc2)nc2cnccn12 -15.9%
Cc1ccc(NC(=O)c2ccc(N(Cc3ccccc3)S(C)(=O)=O)cc2)cc1 1.51%
COC(=O)c1ccc(NC(=O)NC(C)c2c(-n3cccc3)sc(C)c2C)cc1 (stereo not drawn) 1.93%
Cc1cccc(N(CC(=O)N(C)Cc2ccccc2)S(=O)(=O)c2ccccc2)c1C -12.3%
CC(C)(C)c1ccc(C(=O)N2CCC(c3nc4ccccc4o3)CC2)cc1 -14.5%

Potency, active:
Cc1ccc(-c2nc(NC(=O)CSc3cc(C)c4ccccc4n3)ns2)cc1 28.2 µM
CC(C)(C)c1ccc(S(=O)(=O)c2cnc(SCC(=O)Nc3ccc(F)c(Cl)c3)[nH]c2=O)cc1 35.5 µM
